# Values joined by “and” are separate entries in the source; they are usually repeats but may differ in a detail not shown here. Equal values may be shown once. Among all 420,000 compounds or so, about 64,000 (15%) were called active. Inconclusive results, whose numbers are uncertain, are shown with a selection of clear calls. Calls follow the shape of the dose curve; as a rule, active = well fitted inhibition curve with a large enough effect; inconclusive = small, poorly fitted or top-dose-only effect; inactive = flat fitted curve, though single readings scatter. Potencies of inconclusive entries are doubtful fits and often do not repeat.
# Assay: qHTS for Inhibitors of human tyrosyl-DNA phosphodiesterase 1 (TDP1): qHTS in cells in absence of CPT; also: nearly all actives have a fitted effect of over 55% in size
# Details: DT40 Tdp1-/- hTDP1 cells, no CPT, ATP luminescence, 48 h; activity change, negative = growth inhibition: at 46.2 µM (top of the series) unless noted
# Method in brief: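 Growth kinetics read by CellTiter-Glo luminescence after ≥48 hr at 37 °C. Cells: DT40 Tdp1-/- stably carrying human TDP1, 400 per well, compound exposure in the absence of CPT (DMSO vehicle).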
# % is scaled to controls: 0 for no effect and ±100 for the full control effect; potency is read from the fitted curve at half-maximal effect; tags tell the direction and shape of the fitted curve.
Structure (SMILES),Potency,"activity change, negative = growth inhibition"
Cc1cc(C)n2c(Nc3ccc4c(c3)OCCO4)c(CCc3ccccc3)nc2n1,active: 5.8 µM,
COc1ccc(C(=O)Nc2ccc(NC(=O)c3ccccc3OC)nc2)cc1,"inconclusive: 9.2 µM [inhibitor, partial curve]",
COCCN(C(=O)c1ccco1)c1nnc(-c2ccc(OC)cc2)s1,,inconclusive: -32% [inhibitor]
CCc1cccc(NC(=O)CCn2c(=O)c3cccn3c3cccnc32)c1,,inactive: -16.7%
CC(C)N(CC(O)COc1ccc(CC(N)=O)cc1)CC(O)COc1ccc(CC(N)=O)cc1 (stereo not drawn),,inconclusive: -19.3% [inhibitor]
O=S(=O)(NCCC(c1ccc(F)cc1)c1ccco1)c1ccccc1 (stereo not drawn),"inconclusive: 16.4 µM [inhibitor, partial curve, poor fit]",
O=C(NCCc1ccccc1)c1ccc(CS(=O)Cc2ccc(Cl)cc2)o1 (stereo not drawn),"inconclusive: 20.6 µM [inhibitor, partial curve] and inconclusive: 29.1 µM [inhibitor, single point]",
CNC(=O)CC1C(=O)N(c2ccc(Cl)cc2)C(=S)N1NC(=O)c1cccc(F)c1 (stereo not drawn),,inactive: -25.1%
COC(=O)c1ccc2c(c1)NC(=O)C1CCCN21 (stereo not drawn),,inactive: -24.4%
COc1ccc(Br)cc1/C=C/C(=O)Nc1c(C)cccc1C,active: 23.1 µM,
Nc1nc(OCC2CCCCC2)c2[nH]cnc2n1,"inconclusive: 29.1 µM [inhibitor, single point]",
COc1cc2c(cc1NC(=O)C(C)Sc1ccc(NC(C)=O)cc1)oc1ccccc12 (stereo not drawn),"inconclusive: 29.1 µM [inhibitor, single point]",
CCOc1ccc(-c2nc(N)ncc2-c2ccc(Cl)cc2)c(O)c1,"inconclusive: 23.1 µM [inhibitor, single point]",
COc1ccc(-c2c(C#N)c(SCC(=O)c3cc4ccccc4oc3=O)nc(C)c2C(=O)Nc2ccccc2)cc1,"inconclusive: 20.6 µM [inhibitor, single point]",
CCOc1ccc(S(=O)(=O)Nc2ccccc2SC)c2cccnc12,"inconclusive: 29.1 µM [inhibitor, single point]",
Cc1cc(F)cc(-c2cc(C(=O)NCc3ccco3)[nH]n2)c1,,inactive: -9.15%
CCc1nnc(NC(=O)CSc2ccc(-c3ccccc3OC)nn2)s1,,inactive: -3.1%
Cc1cc(NC(=O)CCc2nc3cccnc3n2-c2ccccc2)ccc1Br,"inconclusive: 23.1 µM [inhibitor, single point]",
COc1ccc(C(C(=O)NCc2ccccc2)n2c(-c3ccncc3)nc3ccccc32)cc1 (stereo not drawn),"inconclusive: 29.1 µM [inhibitor, single point]",
Cn1ccc2c(-c3ccc4c(c3)OCCO4)cc3c(c21)C1CCC3C1 (stereo not drawn),"inconclusive: 23.1 µM [inhibitor, single point]",
O=C(c1ccc(Cl)c(Cl)c1)N1CCN(Cc2ccc3c(c2)OCO3)CC1,"inconclusive: 10.3 µM [inhibitor, partial curve, poor fit]",
Cc1ccc(Cl)cc1-c1ccc(C=Nc2ccc(N3CCOCC3)cc2)o1,"inconclusive: 29.1 µM [inhibitor, single point]",

Structure (SMILES),Potency,"activity change, negative = growth inhibition"
CC(C)CCN(C(=O)CNC(=O)c1ccco1)C(C(=O)NC1CCCCC1)c1ccco1 (stereo not drawn),,inactive: -29.3%
CNC(=O)CN(c1cc(OCCOC)c(Cl)cc1Cl)S(=O)(=O)c1ccccc1,"inconclusive: 5.17 µM [inhibitor, partial curve, poor fit]",
O=C(Cc1ccccc1)Nc1ccccc1Oc1ccccc1,"inconclusive: 29.1 µM [inhibitor, single point]",
O=C(Cn1nnc(-c2ccncc2)n1)N(C1CCCCC1)C1CCCCC1,"inconclusive: 25.9 µM [inhibitor, single point]",
N#Cc1c(-c2ccc(F)cc2)ccnc1N1CCOCC1,,inactive: -12.4%
O=S(=O)(O)Oc1ccc(C(c2ccc(OS(=O)(=O)O)cc2)c2ccccn2)cc1,,inactive: 7.73%
O=C(Nc1ccc(F)cc1F)C1CCN(c2ncccn2)CC1,"inconclusive: 13 µM [inhibitor, single point]",
CCCS(=O)(=O)NC(=O)C1(C)CCCN(C(=O)c2ccccc2)C1 (stereo not drawn),,inactive: -6.78%
CCC(C)(C)n1nnnc1C(C(C)C)N(CCCO)Cc1cc2cc(C)ccc2[nH]c1=O (stereo not drawn),"inconclusive: 20.6 µM [inhibitor, single point]",
CCCn1nnc(NC(=S)NC(=O)CC)n1,active: 18.4 µM,
Cc1cc(=O)[nH]c(N/N=C/c2c(C)nn(-c3ccccc3Cl)c2Cl)n1,"inconclusive: 29.1 µM [inhibitor, single point]",
Cc1ccccc1Cn1ccc(NC(=O)CCSc2nc(-c3ccco3)cc(C(F)(F)F)n2)n1,"inconclusive: 25.9 µM [inhibitor, single point]",
ClC1(Cl)CC1CSc1nnc(-c2ccncc2)o1 (stereo not drawn),"inconclusive: 29.1 µM [inhibitor, single point]",
O=C(/C=C/c1ccco1)NC(=S)Nc1ccc(C(=O)O)cc1,,inactive: -12.7%
Cc1ccc(C)c(N2CCN(c3ncnc4c3nc3n4CCCC3)CC2)c1,"inconclusive: 25.9 µM [inhibitor, single point]",
CCCN1CN(Cc2ccco2)c2nc3ccccc3n2C1,"inconclusive: 20.6 µM [inhibitor, partial curve]",
CCOC(=O)N1CCN(C(=O)C2CCN(Cc3nc(-c4ccccc4C)oc3C)CC2)CC1,"inconclusive: 29.1 µM [inhibitor, single point]",
O=C(CCNC(=O)c1ccc([N+](=O)[O-])cc1)NCCC1=CCCCC1,"inconclusive: 29.1 µM [inhibitor, single point]",
O=C(NC1CCCCCCC1)c1ccc2c(c1)N(Cc1ccc(F)cc1)C(=O)CS2=O (stereo not drawn),"inconclusive: 35.5 µM [inhibitor, single point]",
COc1ccc(OC)c(Nc2cc(C)c3ccccc3n2)c1,"inconclusive: 0.58 µM [inhibitor, full curve, poor fit]",
Cc1ccccc1NC(=O)Cn1cc(C(=O)c2ccco2)c2ccccc21,"inconclusive: 16.4 µM [inhibitor, single point]",

# — PubChem BioAssay AID686978 (National Center for Advancing Translational Sciences (NCATS), 2013)
